Laboratory results: PubChem BioAssay AID485297 (National Center for Advancing Translational Sciences (NCATS), 2010)
Screen size: about 320,000 compounds; about 9,100 (2.8%) were called active. The inconclusive results got no clear call from the source; some entries with a clear call stand among them for comparison. The call rests on the fitted dose curve; in most records, active means well fitted activation curve with a large enough effect; inconclusive means small, poorly fitted or top-dose-only effect; inactive means no such curve, though single readings can be large or run the other way. A potency beside an inconclusive call is a rough fit, not a confirmed value.

test: qHTS Assay for Rab9 Promoter Activators; conditions: Huh7 Rab9 promoter-luciferase reporter, luminescence, 24 h; series mostly up to 9.22 µM; further: nearly all actives have a fitted effect of over 60% in size
Outline: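 Measured in stably transfected Huh7 cells bearing a Rab9 promoter–luciferase construct: 24 h compound treatment at 37 °C, followed by luminescence detection.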
Potency means the concentration at half of the fitted maximal effect; tags describe the fitted curve by direction and shape.

Potency, inactive:
O=C(Nc1cccnc1Cl)c1ccc(=O)oc1
C=C1C(=O)[C@@]23[C@H](O)C[C@@H]4C(C)(C)CC[C@H](O)[C@]4(C)[C@@H]2C[C@H](O)[C@@H]1[C@H]3O
CC(/C=N/NC(=O)CSc1nc2ccccc2n1C)=C\c1ccco1
CN(CCCN1CCOCC1)C(=O)c1cc(COc2cccc(C(F)(F)F)c2)on1
COc1ccc(NC(=O)c2ccc(=O)oc2)cc1
Cc1ccc(C(=O)Nc2ccc(NC(=O)c3ccco3)c(C)c2)cc1
CCC(C)NC(=O)c1cn(CC)c2ccc(S(=O)(=O)N(C)C)cc2c1=O (stereo not drawn)
Oc1cccc(C(O)CNCc2ccc(OCc3ccc(Cl)cc3Cl)cc2)c1 (stereo not drawn)
c1ccc(Oc2nc(-c3ccccn3)nc3ccccc23)cc1
CCC(Nc1ccc(OC)cc1)C(=O)N/N=C/c1ccc([N+](=O)[O-])cc1 (stereo not drawn)
c1ccc(-c2nnc3sc(-c4ccncc4)nn23)cc1
CCNC(=O)COC(=O)C1C(C(=O)OCC)=C(C)NC(C)=C1C(=O)OCC
COc1cc(NC(=O)CSc2ncnc3scc(-c4ccccc4)c23)c(C(=O)O)cc1OC
Cc1nc(NC(=O)c2ccccc2)sc1-c1csc(Nc2cccc(F)c2)n1
CCCCn1nc(C(=O)Nc2ccccc2N2CCCC2)c2ccccc2c1=O
C/C(=N/O)c1ccc2c(c1)OCCOCCOc1cc(/C(C)=N/O)ccc1OCCOCCO2
CC(C)N(CCO)Cc1nc(C(c2ccccc2)c2ccccc2)no1
CC(C)C(O)(C#CCN1CCCCCC1)c1ccccc1 (stereo not drawn)
Fc1ccc(CSc2nncn2NC/C=C/c2ccccc2)cc1
On1c(-c2ccccc2)nc2ccccc21
CN(CC(=O)Nc1cccc(F)c1)C(=O)CCCc1cccs1

Potency, inconclusive:
CSc1cccc(NC(=O)c2[nH]c(C)c(C(C)=O)c2C)c1 5.62 µM [activator, partial curve]
COc1ccccc1CN1CC(C(=O)NCc2c(F)ccc(C)c2F)CCC1=O (stereo not drawn) 2.82 µM [activator, partial curve]
Cn1c(=NC(=O)c2ccco2)sc2ccccc21 1.58 µM [activator, partial curve]
CCc1c(C)c2ccc(OC3CCCCC3=O)cc2oc1=O (stereo not drawn) 6.31 µM [activator, single point]
CCOc1ccc2nc(SCC#N)c(C#N)cc2c1 1.58 µM [activator, partial curve]
CC1(C)Cc2nc3sc4c(NCCO)ncnc4c3cc2CS1 5.62 µM [activator, single point]
COc1cccc(NC(=S)N2CCC(c3ccc(C)cc3)C2)c1 (stereo not drawn) 3.55 µM [activator, single point]
CC(NC(=O)C12CC3(C)CC(C)(CC(C)(C3)C1)C2)C(=O)O (stereo not drawn) 1 µM [activator, single point]
CN1CCCC1CCNc1ccc2c(=O)c3ccccc3oc2c1 (stereo not drawn) 1.41 µM [activator, partial curve, poor fit]
O=C(NNC(=S)NC1CC2CCC1C2)c1ccc(Cl)cc1 (stereo not drawn) 6.31 µM [activator, single point]
CC(=O)c1c(C)[nH]c(C(=O)OCC(=O)N2CCc3ccccc32)c1C 3.16 µM [activator, partial curve]
O=C(NCC1CCCO1)Nc1ccc2c(c1)OCO2 (stereo not drawn) 5.62 µM [activator, single point]
COc1ccc2cnn(-c3ccc(C)cc3)c(=O)c2c1OC 4.47 µM [activator, partial curve]
O=C(CSc1ccsc1[N+](=O)[O-])NCc1ccccc1 2.82 µM [activator, partial curve]
C(=N\Nc1cc(N2CCCCC2)ncn1)/c1ccco1 3.55 µM [activator, single point]
Cc1ccc(NC(=O)CSc2ncccc2C(=O)Oc2cccc([N+](=O)[O-])c2)cc1Cl 3.55 µM [activator, partial curve]
CCOC(=O)c1ccc(NC(=S)Nc2cccc(N)n2)cc1 3.16 µM [activator, single point]
CCN(CC)C(=O)c1cc(-c2ccccc2OC)on1 3.55 µM [activator, partial curve]
CCOC(=O)/C(C#N)=C(C)/C=C1\Sc2ccccc2N1CC 3.98 µM [activator, single point]
CCn1c(CC(=O)Nc2ccccc2)nnc1SCC(=O)NC1=NCCS1 1.26 µM [activator, single point]
CN(C)/C=C1\N=C(c2ccc3c(c2)OCO3)OC1=O 3.16 µM [activator, partial curve]
Cc1c(C(O)CN2CCN(Cc3ccc4c(c3)OCO4)CC2)c2ccccc2n1C (stereo not drawn) 1.26 µM [activator, single point]
CCN(CC)C(=N)/C(C#N)=N/Nc1ccccc1 2.24 µM [activator, partial curve]
CSc1ccccc1OCc1cc(C(=O)N(C)Cc2cnccn2)no1 3.55 µM [activator, partial curve]
Cc1nc2cc(NC(=O)C3COc4ccccc4O3)ccc2s1 (stereo not drawn) 5.01 µM [activator, single point]
O=C(Nc1ccc2ccccc2c1)C(=O)C1C(=O)Nc2ccccc21 (stereo not drawn) 3.16 µM [activator, single point]
COC(=O)c1c(NC(=O)C2CCCCC2C(=O)O)sc2c1CCCCC2 (stereo not drawn) 3.55 µM [activator, single point]
O=C(N1CCOCC1)N1CCN(c2nc(-c3ccccc3)cs2)CC1 5.01 µM [activator, single point]
Cc1ccc(C(=O)NCCn2cc(SCC(=O)Nc3cc(C)on3)c3ccccc32)cc1 5.62 µM [activator, single point]
COc1ccc(C(=O)Nc2ccccc2C(=O)N/N=C/c2cccc3ccccc23)cc1 0.631 µM [activator, full curve]
Cc1cccc(C(=O)Nc2ccc3c(c2)C(=O)N(CC(C)C)C3=O)c1 3.55 µM [activator, partial curve]
O=C1C[C@H]2[C@H](CO)[C@@H](OC(=O)c3ccc(-c4ccccc4)cc3)C[C@H]2O1 2.51 µM [activator, partial curve]
CNc1cccc2c1C(=O)c1ccccc1C2=O 6.31 µM [activator, single point]
Cc1ccc(Nc2ncnc(N)n2)cc1 3.98 µM [activator, single point]
O=C(NCCc1ccc(Cl)cc1)c1cccs1 3.16 µM [activator, single point]
CC1CN(c2nnc(NC(=O)c3ccccc3)s2)CC(C)O1 (stereo not drawn) 2.51 µM [activator, partial curve]
C/C(=N\NC(=O)c1ccc(N/N=C(\C)c2ccc(O)cc2)cc1)c1ccc(O)cc1 3.55 µM [activator, partial curve]
c1coc(-c2nnc(-c3cccs3)o2)c1 3.55 µM [activator, single point]
N#Cc1cccn1-c1nccc(-c2cccs2)n1 6.31 µM [activator, single point]
CC(=O)c1ccc(NC(=O)c2cc(C)nc3ccccc23)cc1 4.47 µM [activator, partial curve]
COc1cccc(N/C=C/C(=O)c2ccc(OC)c(OC)c2)c1 1.12 µM [activator, single point]
Cc1ccc(C)c(Cn2nnc(C(=O)Nc3ccc4c(c3)OCCO4)c2N)c1 3.55 µM [activator, single point]

Potency, active:
O=C(Nc1cccnc1Cl)c1cc2ccccc2o1 1.26 µM
c1ccc2oc(SCc3cn4ccsc4n3)nc2c1 3.55 µM
CC(C)CN1CCC(=O)N(CCSc2ccccc2)CC1 1.58 µM
O=C(N/N=C/C(Cl)=C\c1ccccc1)c1ccco1 2.51 µM
CC(=O)c1cccc(NC(=O)C(=O)Nc2cccc3ccccc23)c1 2.51 µM
Cc1cc(C(=O)COC(=O)c2ccc(O)cc2O)c(C)n1C(C)C 3.55 µM
O=C(CCCC(=O)c1ccc(F)cc1)c1ccc(F)cc1 1 µM
Cc1ccccc1/C=C\c1nc2ccccc2c(=O)[nH]1 0.562 µM
O=C(O)c1ccc(N/N=C/c2c(F)cccc2Cl)cc1 1.26 µM
CN(C(=O)CSc1ncnc2ccccc12)C1CCCCC1 3.55 µM
COc1cccc(C(=O)Nc2nnc(C(C)C)s2)c1 1 µM
COc1ccc(S(=O)(=O)N/N=C(/C)c2ccco2)cc1 2.51 µM
C/C(=C\C(=O)c1ccc(C)o1)Nc1ccc2c(c1)OCO2 2.24 µM
Cc1cccc(NC(=O)c2onc3c2CCCC3)c1C 2.82 µM
Cc1cc(NC(=O)c2cccc(COc3ccc(Br)cc3)c2)no1 0.447 µM
